From PubChem BioAssay AID1347417 (National Center for Advancing Translational Sciences (NCATS), 2020)
Hit rate of the full screen: of about 120,000 compounds, about 5,300 (4.4%) were called active. Inconclusive results, whose numbers are uncertain, are shown with a selection of clear calls. The call rests on the fitted dose curve; in most records, active means well fitted inhibition curve with a large enough effect; inconclusive means small, poorly fitted or top-dose-only effect; inactive means no such curve, though single readings can be large or run the other way. Potencies beside an inconclusive call are fits to weak or partial responses and may not hold up.

Assay: qHTS Primary assay for Inhibitors of Plasmodium falciparum Dd2 growth in vitro; further: nearly all actives have a fitted effect of over 65% in size;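 on activity, negative = inhibition: plate controls were DMSO vehicle for no effect and reference drug for full effect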
Details: P. falciparum Dd2 growth, SYBR Green, 72 h; activity, negative = inhibition: at 28.9 µM (top of the series) unless noted; series mostly up to 28.9 µM
Summary of the method: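 Infected erythrocytes (Dd2, 0.3% parasitemia, 2.5% hematocrit final) are added to compound in RPMI-1640/Albumax II medium, grown 72 h at 37C in low oxygen, then lysed with saponin/Triton-X containing SYBR Green and read by fluorescence.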
Potency means the concentration at half of the fitted maximal effect; tags describe the fitted curve by direction and shape.

Structure (SMILES)	Potency	outcome	activity, negative = inhibition
COc1ccccc1OCc1cc(C(=O)N2CCCCCCCC2)n[nH]1	inconclusive: 14.1 µM [inhibitor, partial curve, poor fit]		
COc1ccccc1N1CCN(C(=O)CN2C(=O)C(c3ccccc3)=NC23CCCC3)CC1		inactive	
O=C1CCN(S(=O)(=O)c2ccccc2)CCCC(c2nc(-c3ccccc3)no2)CCN1 (stereo not given)			inactive: 8.69%
CCc1noc(-c2cn(C3CCCN(C(=O)c4ccc(C(C)(C)C)cc4)C3)nn2)n1 (stereo not given)	inconclusive: 4.47 µM [inhibitor, partial curve, poor fit]		
O=C(CC1CCCCC1)N1CCCC(c2noc(COc3ccccc3F)n2)C1 (stereo not given)		inactive	
Cc1cccc(S(=O)(=O)N2C[C@@H]3CCCN4CCC[C@@H]([C@H]34)[C@H]2CCCC(=O)N2CCOCC2)c1	inconclusive: 20 µM [inhibitor, single point]		
Cc1ccc(-n2ncc3c(NCc4ccccc4)ncnc32)cc1Cl	inconclusive: 17.8 µM [inhibitor, partial curve, poor fit]		
COc1ccc(-c2nc(C(C)C)nc3c2CCN(C(=O)Cc2cccc(Cl)c2)CC3)cc1	inconclusive: 3.16 µM [inhibitor, full curve]		
CCSc1nc2n(n1)C(c1ccc(Cl)cc1Cl)C(C(=O)Nc1ccccc1C)=C(C)N2 (stereo not given)	inconclusive: 17.8 µM [inhibitor, single point]		
CN(C)[C@H]1CCCCN(C(=O)CC2CCN(Cc3ccccc3)CC2)C1	inconclusive: 8.91 µM [inhibitor, partial curve]		
CCOCCOC1CCN(S(=O)(=O)c2c(C)noc2C)CC1	inconclusive: 1.58 µM [inhibitor, full curve, poor fit]		
COc1ccc(N2Cc3c(NCC4CC4)ncnc3N(C)CC2=O)cc1			inactive: 14%
CN1C(=O)CCCCC1C(=O)NCC1CCCCC1 (stereo not given)			inactive: 12%
N#Cc1cccc(CN2CCC[C@H]2c2nc(-c3ccc(OC4CCCCC4)nc3)no2)c1	inconclusive: 10 µM [inhibitor, partial curve]		
CCn1c(=O)c2cc(C(=O)NCCCN3CCN(C)CC3)sc2c2ccccc21	inconclusive: 11.2 µM [inhibitor, single point]		
CN1CCC2(C1)CN(Cc1ccccc1)c1ccc(C(=O)Nc3ccc(F)cc3)cc12 (stereo not given)	inconclusive: 1.41 µM [inhibitor, full curve]		
O=C1CCN(S(=O)(=O)c2ccccc2)CCCN(Cc2cccc(F)c2)CCN1	inconclusive: 10 µM [inhibitor, partial curve, poor fit]		
O=C(c1ccc2c(c1)N(Cc1ccccc1F)C(=O)c1ccccc1S2(=O)=O)N1CCN(c2ccccn2)CC1	inconclusive: 3.55 µM [inhibitor, partial curve, poor fit]		
O=C(Nc1ccc([C@@H](O)[C@H]2COCC(=O)N2CC2CC2)cc1)c1ccc(F)cc1	inconclusive: 15.8 µM [inhibitor, partial curve, poor fit]		
O=C1CO[C@H]2CN(Cc3cccnc3)C[C@H]2N1Cc1cccc(C(F)(F)F)c1	inconclusive: 12.6 µM [inhibitor, single point]		

Structure (SMILES)	Potency	outcome	activity, negative = inhibition
Cn1nccc1C(=O)N1CCC2(CC1)OC(=O)N(Cc1ccccc1C#N)C2(C)c1ccccc1 (stereo not given)	active: 10 µM		
Cc1cc(-c2cc3[nH]ccc3c(C(=O)NCc3c(C)cc(C)[nH]c3=O)n2)ccn1			inactive: -21.7% [at 44.1 µM]
Cc1cc2c(cc1S(=O)(=O)Nc1ccc(OC(F)(F)F)cc1)OCC(=O)N2	inconclusive: 17.8 µM [inhibitor, single point]		
COCc1cc(C[C@@H]2CC[C@H](O)[C@@H](CNCc3cccc(OC)c3)O2)no1			inactive: -2.7% [at 44.1 µM]
Cc1cc(NC(=O)N2CCCC(Cn3cnc4cccnc43)C2)ccc1Br (stereo not given)	active: 8.91 µM		
O=C(NCCCN1CCN(c2cccc(Cl)c2)CC1)c1sc2ncccc2c1-n1cccc1	inconclusive: 11.2 µM [inhibitor, single point]		
Cc1ccc(Nc2c(-c3ccc(Br)o3)nc3ccccn23)cc1	inconclusive: 11.2 µM [inhibitor, single point]		
O=C(CCc1ccccc1)N1CCCC(n2cc(-c3nc(-c4ccccc4)no3)nn2)C1 (stereo not given)	inconclusive: 0.0708 µM [inhibitor, full curve, poor fit]		
COCC(=O)N1CCC(C(=O)NCc2cc(-c3cccc(F)c3)no2)CC1			inactive: -28.7%
Cc1cc(C)nc(-n2nc(C)c3c2N(Cc2ccccc2)C(=O)CC3c2ccc(Cl)cc2)n1 (stereo not given)	inconclusive: 8.91 µM [inhibitor, single point]		
Cc1ccc(C(=O)N2CCC(N3C(=O)C(O)C34CCCCC4)CC2)s1 (stereo not given)			inactive: -29%
O=C(Nc1cccc(F)c1)N1CCC2(CC1)CC(N1CCOCC1)CCO2 (stereo not given)		inactive	
OC1(CN2CCCCC2)CCN(Cc2ccc(Cl)cc2)C1 (stereo not given)	inconclusive: 20 µM [inhibitor, partial curve, poor fit]		
COC(=O)[C@@H]1Cc2c([nH]c3ccccc23)[C@H]2C[C@@H](NCCN3CCOCC3)C[C@@H](c3ccc(F)c(F)c3)N21	inconclusive: 11.2 µM [inhibitor, single point]		
Cc1ccc(-n2cc(C(=O)Oc3ccc(F)cc3)c3ccccc3c2=O)cc1	inconclusive: 17.8 µM [inhibitor, single point]		
COc1ccc(C(=O)N2CCN(c3nnc4cccc(C)n34)CC2)cc1F	inconclusive: 1.41 µM [inhibitor, full curve, poor fit]		
O=C(CSc1oc(-c2ccccc2)nc1S(=O)(=O)c1ccc(Cl)cc1)c1ccccc1	inconclusive: 8.91 µM [inhibitor, single point]		
N#Cc1cccc(-c2cn3c(n2)N(C(=O)Cc2cccs2)CCC3)c1	inconclusive: 2.51 µM [inhibitor, full curve, poor fit]		
O=S(=O)(NC[C@H]1C[C@@H]2CCN1C[C@@H]2CN1CCc2ccccc2C1)c1ccc(Cl)cc1	inconclusive: 1.58 µM [inhibitor, partial curve, poor fit]		
CCCNC(=O)N1CCC(N2CC(OCCOC)C23CCCCC3)CC1 (stereo not given)	inconclusive: 17.8 µM [inhibitor, single point]		
